Measured values reported in PMC4336329 (PLoS ONE, 2015).
The whole screen tested about 310,000 compounds, of which about 2,200 (0.71%) showed an effect of 50% or more. Effects have a minus sign here. The list shows a part of the results.

target: human ether-à-go-go-related gene (hERG) potassium channel (human, UniProt Q12809); experiment: primary screen, population patch clamp on CHO cells stably expressing hERG
Sequence (Q12809 whole entry, looked up): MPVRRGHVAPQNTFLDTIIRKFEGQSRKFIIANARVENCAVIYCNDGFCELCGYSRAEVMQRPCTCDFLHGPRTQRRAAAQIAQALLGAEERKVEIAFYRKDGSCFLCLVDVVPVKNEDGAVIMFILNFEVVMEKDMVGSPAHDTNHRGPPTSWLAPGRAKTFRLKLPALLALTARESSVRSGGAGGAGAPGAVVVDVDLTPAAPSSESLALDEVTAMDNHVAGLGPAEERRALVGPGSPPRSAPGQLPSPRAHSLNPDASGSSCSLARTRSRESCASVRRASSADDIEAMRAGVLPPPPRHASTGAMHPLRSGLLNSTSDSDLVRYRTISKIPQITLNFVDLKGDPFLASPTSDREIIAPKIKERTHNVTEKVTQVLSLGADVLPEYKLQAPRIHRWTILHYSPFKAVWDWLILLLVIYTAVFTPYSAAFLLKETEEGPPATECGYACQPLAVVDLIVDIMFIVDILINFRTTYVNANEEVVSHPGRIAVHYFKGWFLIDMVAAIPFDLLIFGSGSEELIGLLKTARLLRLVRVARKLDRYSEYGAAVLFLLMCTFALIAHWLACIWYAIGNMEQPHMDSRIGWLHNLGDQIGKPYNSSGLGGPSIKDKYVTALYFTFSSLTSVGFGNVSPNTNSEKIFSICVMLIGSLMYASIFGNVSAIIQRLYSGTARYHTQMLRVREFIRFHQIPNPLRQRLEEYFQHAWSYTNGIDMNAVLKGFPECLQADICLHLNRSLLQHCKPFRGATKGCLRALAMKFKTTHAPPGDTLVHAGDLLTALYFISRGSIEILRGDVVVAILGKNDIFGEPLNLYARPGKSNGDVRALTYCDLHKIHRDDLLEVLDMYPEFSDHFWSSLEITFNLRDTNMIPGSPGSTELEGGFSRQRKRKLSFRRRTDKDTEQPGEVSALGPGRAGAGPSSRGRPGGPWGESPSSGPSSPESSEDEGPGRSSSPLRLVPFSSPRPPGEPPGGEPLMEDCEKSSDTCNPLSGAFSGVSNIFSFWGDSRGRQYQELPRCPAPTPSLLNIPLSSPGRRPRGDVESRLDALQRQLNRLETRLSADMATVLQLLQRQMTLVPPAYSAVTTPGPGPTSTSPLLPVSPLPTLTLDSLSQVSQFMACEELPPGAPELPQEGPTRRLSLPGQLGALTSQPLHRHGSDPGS

Structure (SMILES) | hERG current change (%, negative = inhibition) at 1uM
Nc1cc(=O)nc(SCC(=O)NCc2ccccc2)n1CCc1ccccc1 | 7.58%
Cc1ccc(NC(=O)c2cc(=O)[nH]c3ccccc23)cc1C | 15.2%
O=c1[nH]c2c(oc3ccccc32)c(=O)n1Cc1ccccc1 | 14.8%
CC(=O)Nc1ccc(-c2csc(NNC(=O)c3ccccc3)n2)cc1 | 17.8%
CC(C)(C)C(=O)Nc1ccccc1C(=O)Nc1ccccn1 | 12.4%
COc1ccccc1N1CCN(C(=O)C2CCN(C(=O)c3ccccc3C)CC2)CC1 | 10.2%
NC(=O)c1ccc(NCC2CCCO2)c([N+](=O)[O-])c1 (stereo not drawn) | 8.75%
Cc1ccc(NCc2n[nH]c(=S)n2-c2ccccc2)cc1 | 5.36%
CCC(C)NC(=O)[C@H]1N2C(=O)c3ccccc3C2SC1(C)C (stereo partly drawn) | 14.4%
CC(C)N1CCN(Cc2cc3ccccc3[nH]2)CC1CCO (stereo not drawn) | 14.3%
C=C(C)COc1ccc(-c2ncncc2-c2ccccc2)c(O)c1 | 9.56%
C=CCn1cccc(C(=O)Nc2cc(OC)ccc2OC)c1=O | 12.7%
COc1ccc(F)cc1S(=O)(=O)Nc1ccc2c(c1)OCCO2 | 4.62%
CCCCn1c(SCC(=O)NCCOC)nc2ccc(N3CCOCC3)cc2c1=O | 4.73%
O=C(O)CCSCc1ccccc1F | 12.4%
OCCOCC#CCN1CCOCC1 | 14.7%
Cc1cc(-c2c(C)[nH]n(-c3ccccc3)c2=O)n[nH]1 | -3.68%
Cc1ccc(N(CC(=O)N/N=C/c2cc(C)n(-c3ccccc3)c2C)S(C)(=O)=O)c(C)c1 | 10.7%
CCCCN(C(=O)c1ccc(N(C)S(=O)(=O)c2ccc(C)cc2)cc1)c1c(N)n(CCCC)c(=O)[nH]c1=O | -4.43%

Structure (SMILES) | hERG current change (%, negative = inhibition) at 1uM
CCOc1ccccc1Nc1nc(N)nc(CSc2nncn2C)n1 | 9.75%
CNC(=S)Nc1cccc2[nH]ncc12 | 9.13%
O=C(COC(=O)/C=C/c1ccc(Cl)cc1)NC1CCCCCC1 | 2.86%
CCN(CC)c1ccc(NC(=O)Nc2ccc(C(C)=O)cc2)cc1 | 14.2%
COc1cccc(C(CNC(=O)C(c2ccccc2)c2ccccc2)N(C)C)c1 (stereo not drawn) | 15.8%
Cc1ccc(C)c(N(CC(=O)N/N=C/c2ccc(-c3ccc([N+](=O)[O-])cc3)o2)S(=O)(=O)c2ccccc2)c1 | 11%
CCCCOc1ccc(C(=O)OCC(=O)Nc2cc(C)on2)cc1 | 2.32%
C/C(=N/NC(=O)CNC(=O)Cc1ccccc1)c1ccco1 | 13%
Cc1c(C(=O)OCC(=O)N2c3ccccc3CC2C)oc2ccccc12 (stereo not drawn) | 14.6%
COC(=O)c1cnc(SCc2ccc(Cl)cc2)n1C | 11.8%
CC12CCC(=O)N1C(C(=O)OCC(=O)Nc1ccc(S(N)(=O)=O)cc1)CS2 (stereo not drawn) | 14.8%
CCN(CC)S(=O)(=O)c1ccc(Cl)c(NC(=O)COC(=O)c2cccn2C)c1 | 7.32%
Cc1cccc(NC(=O)c2sc(NC(=O)c3ccco3)c(C#N)c2C)c1C | 13.6%
COc1ccccc1C(=O)NC(=S)Nc1ccc(N2CCN(C(=O)c3ccco3)CC2)cc1 | 13.5%
COc1ccc(O)c(C2=Nc3ccccc3N=C(c3cccs3)C2)c1 | 9.52%
CCn1c(=O)n(CC)c2cc(S(=O)(=O)N3CCC(c4ccccc4)CC3)ccc21 | 10.7%
Cc1onc(-c2ccccc2Cl)c1C(=O)N1CCCCC1C (stereo not drawn) | 4.52%
CCN(Cc1ccccc1)S(=O)(=O)c1cc(C(=O)NCCCN(C)C)ccc1OC | -3.38%
O=C(Nc1ccccc1Br)c1cc[n+]([O-])cc1 | 17.4%

Structure (SMILES) | hERG current change (%, negative = inhibition) at 1uM
CCCNC(=S)N1CC2(C)CN(C(=O)C(=O)OC)CC(C)(C1)C2=O | 12.3%
COc1ccc(CNCc2ccc3c(c2)OCO3)c(OC)c1OC.O=C(O)C(=O)O | 11.8%
CCN(CC(=O)Nc1c(F)cccc1F)C(=O)Cc1ccc2c(c1)CCC2 | 17.7%
O=C1c2ccccc2C(=O)C1c1ccccc1F | 0.0065%
COc1cc(CNC2CCCC2)cc(Cl)c1OCc1ccccc1F.Cl | 9.2%
O=C(NC(=O)c1c(F)cccc1F)Nc1ccccc1SC(F)F | 9.26%
CCOC(=O)c1ccccc1NC1OC(=O)c2ccccc21 (stereo not drawn) | 15.7%
O=C(Cn1c(C(F)(F)F)nc2ccccc21)Nc1ccccc1N1CCOCC1 | 9.75%
O=C(COC(=O)c1ccccc1F)NC1CC1 | 7.9%
CN(C)CCN1C(=O)c2oc3ccc(Cl)cc3c(=O)c2C1c1cccc(Br)c1 (stereo not drawn) | 7.41%
Cc1ccc(-c2csc3ncn(CC#N)c(=O)c23)cc1C | 8.7%
O=C1NC(c2ccc(Cl)cc2)=COc2ccccc21 | 7.65%
CCc1ccc2c(CN3CCC(C(=O)OC)CC3)cc(=O)oc2c1 | 5.12%
COC(=O)CSc1nc(NC(C)(C)C)nc(N(C)C)n1 | -9.25%
NC(=O)CC(NC(=O)Cc1cccc2ccccc12)c1ccc(NCCc2ccccc2F)c([N+](=O)[O-])c1 (stereo not drawn) | 16.1%
Cc1cc(NC(=O)CSc2nc3c(c(=O)n2Cc2ccccc2)SC(C)C3)no1 (stereo not drawn) | 13.6%
COc1cc(NC(=O)CCS(=O)(=O)c2ccc3c(c2)oc(=O)n3C)cc(OC)c1OC | 17.5%
COc1ccc(C(CNC(=O)c2cccc(S(=O)(=O)N3CCCC3)c2)N2CCCC2)cc1 (stereo not drawn) | 5.51%
CC(=O)Oc1ccc(/C=N/NC(=O)CCSc2ccccc2)cc1 | 13.8%
